# This sample is rich in variants without activity.
# B1: TPR 5TU (parent)
# chain: GGAUCUUCUCGAUCUAACAAAAAAGACAAAUCUGCCACAAAGCUUGAGAGCAUCUUCGGAUGCAGAGGCGGCAGCCUUCGGUGGCGCGAUAGCGCCAACGUUCUCAACUAUGACACGCAAAACGCGUGCUCCGUUGAAUGGAGUUUAUCAUG
# Variants of: B1
# Test: polymerase ribozyme fitness, log enrichment relative to wild type (log ratio); higher = more active; in vitro selection for triplet polymerase activity
# How it was run: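 Genotype fitness is the logarithm of its enrichment divided by wild-type enrichment, using inverse-variance-weighted averages of replicates. That logarithm is base 2. Enrichment was measured by Illumina sequencing of input and output libraries from one triplicate in vitro selection round, with frozen incubation at −7 °C, on PCR-built, transcribed mutant libraries of each subunit of a heterodimeric triplet polymerase ribozyme, retaining genotypes with ≥10 input reads and ≥1 read per output.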
row,Variant,polymerase ribozyme fitness (log ratio)
1,C8U C14A C38U G59U G94U C116G,≤ -4.2
2,C8A A16G C36G A52C C87G A91G C95A A98U G126A G143A U146C,≤ -4.2
3,U9C G62C G80C G86C C87U,≤ -4.2
4,C8G A21C G94C C99A,≤ -4.2
5,C8G C85G C95A A107G U109A A137U A138G,≤ -4.2
6,C8G G11A A17U G71U G88U U127C U135G U148C A150C,≤ -4.2
7,C8G A142C,≤ -4.2
8,C8A A26G G42C G86U,≤ -4.2
9,U7G C14U C85A A91G C103A C116G A121U C131U G133C C149G,≤ -4.2
10,C8U U53G U56G G94C A98G U101A,≤ -4.2
11,C8A A12U C36A,≤ -4.2
12,U9A G92A C93G U146A A150G,≤ -4.2
13,U9A A39C U53G G92A G112C A113G C149G,≤ -4.2
14,C8G A49U C85A G126U U139G,≤ -4.2
15,C8G A29G A52U A64G C87A U134A,≤ -4.2
16,C8A C43A A60U C95U C96A U104G C105U G140C G143A,≤ -4.2
17,C8A G83U C105G C131U A142C,≤ -4.2
18,C8U C36G A49U U55A C95A A120C A138G G143U,≤ -4.2
19,C8A U53A C57G A66U G92C C129U,≤ -4.2
20,U7G C14G G68U C131A,≤ -4.2
21,C8A G11A U13A G70A C93A U102A,≤ -4.2
22,C8A C75A U82G C85U C96A A121G G136C,≤ -4.2
23,C8U C54G,≤ -4.2
24,C8U A29U G58C G94A C105G,≤ -4.2

row,Variant,polymerase ribozyme fitness (log ratio)
1,C8A G11C A40G A73U C85U G92A A121U A147U,≤ -4.2
2,U7G C35A A40G U77C A150U,≤ -4.2
3,C8G A22U G92U C95U U104G,≤ -4.2
4,C8G C35U A40U C95U C149A,≤ -4.2
5,C8G U56A C93U,≤ -4.2
6,U9C A73U,-4.1
7,C8U A47C C75U C87A A119U C132G G136U,≤ -4.2
8,C8A G59C C93G G140U,≤ -4.2
9,U9C A29U U31C U44A C75A C85A G141A,≤ -4.2
10,U9C U15A G25U G86U C131G,≤ -4.2
11,C8U G59C,-2.99
12,C8A C27G U33A C72G U102G A142G,≤ -4.2
13,C8A A19U G84U A106C G117U G124A,≤ -4.2
14,C8G A28G G62A G92U,≤ -4.2
15,C8A A22U A30C C69G G140C,≤ -4.2
16,C8G A19C G25C C51U A60G U90C G117C A150G,≤ -4.2
17,C8G C75U C93A U148G,≤ -4.2
18,U7G G48U G92A C103A A142G U145C G152U,≤ -4.2
19,C8G C35A C85A U90G A113C U139G,≤ -4.2
20,U9C U44A G46C A47G C85U A121G,≤ -4.2
21,C8G A29C G34C G94C A138U,≤ -4.2
22,U9A U77G U78C G92U A142G,≤ -4.2
23,U9C A16U A21G G70C G92U G143U U145G,≤ -4.2
24,C8A C54A C87U U127G,≤ -4.2

row,Variant,polymerase ribozyme fitness (log ratio)
1,U9C C93A G133A G141U,≤ -4.2
2,C8G U53A,≤ -4.2
3,C8U G86A C87A A89G C114U,≤ -4.2
4,C8A U9A A41U C43G C85U G88U A119C C125U,≤ -4.2
5,C8G U77A A107U U146C,≤ -4.2
6,C8U A41C U44G G81C G92U C93G,≤ -4.2
7,U9A C87G,≤ -4.2
8,C8U A12G A28U G74A G81A C99U,-4.18
9,C8G A47C C54G,≤ -4.2
10,C8U A19U A29C A52U C76U C79U C118A A137G,≤ -4.2
11,U9C A16C U44G G50A C75A G81A,≤ -4.2
12,C8G A30U U55A C103G,≤ -4.2
13,C8G A28G U77G U134A,≤ -4.2
14,C8A A16C C18G A49C C95U A98G A142U,≤ -4.2
15,C8U A52G C85A A119U U130G,≤ -4.2
16,C8A G71C G92C U104G G152U,≤ -4.2
17,C8G A24C C43G U53G C93A C96A,≤ -4.2
18,U9A U13C C87U U139G U148G,≤ -4.2
19,C8U C87U,-2.59
20,U7G C69G C93A,≤ -4.2
21,C8A G25U A49G G68C G92U U151C,≤ -4.2
22,C8U A16C U53A C54A G71C G141C U148C C149U,≤ -4.2
23,U9A C10G U31A C38G U90A G141C,≤ -4.2
24,C8U C85A C99A C129G U134G A138U,≤ -4.2

row,Variant,polymerase ribozyme fitness (log ratio)
1,C8G A23U A49G C75G C87A C103U G143U,≤ -4.2
2,C8A C36A A40C C85U G92A C108U,≤ -4.2
3,C8U G81U C95U,≤ -4.2
4,U9C U15G A24C U44A C51G G94A G143A,≤ -4.2
5,C8A C18G A40G C54G A73C C87A U90A C114U,≤ -4.2
6,C8G A23U A37C G92U,≤ -4.2
7,C8U A21U G50C A52U U53A U55A A60G G70A U111G C125A A142C,≤ -4.2
8,C8G U90G C96G A110U U145C,≤ -4.2
9,C8U A37C G46C G74A G86U U90A C131A,≤ -4.2
10,C8G A28C A37U C57U A91U A113U C132U G143C,≤ -4.2
11,C8U C38G U56G G88U A89U C93U U130G,≤ -4.2
12,C8U C10U A29U C57U G83A C96A,≤ -4.2
13,U7G U55G U82C C87U C93A U134C G143A,≤ -4.2
14,C8A G34U C76A G86A C118G,≤ -4.2
15,C8U A12C A52U G136U,≤ -4.2
16,C8A U13A A40C C79U,≤ -4.2
17,U9A U13C A17U U31C A52C G83U C103G C114U C118A,≤ -4.2
18,U9C A12G A21U G42U C51G U53A C96A,≤ -4.2
19,C8U G46U G59A,≤ -4.2
20,U9A A30G A37G C51A U90A A121C U144A,≤ -4.2
21,C8G U31A G34U C57G C93G,≤ -4.2
22,C8G G81C U82G,≤ -4.2
23,C8A U13A A49C U55A C85G G141U,≤ -4.2
24,C8G A24G A26C U53A C75U C95U C96U C114U A150U,≤ -4.2

row,Variant,polymerase ribozyme fitness (log ratio)
1,C8G A23U A30U G42C G83C A97U,≤ -4.2
2,U9C A21U G48A A91U C99U,≤ -4.2
3,C8G G50C C75G C87A C96G C105U G128C,≤ -4.2
4,C8G C10U C51A G80C C95A U102G G124U A137C,≤ -4.2
5,C8U A19U G50C A91U C95G C105U C131U,≤ -4.2
6,C8A A17C G50C C51U C57G C76U A89U C103G U144A,≤ -4.2
7,C8U U56A A64U A91U G128U A150C,≤ -4.2
8,C8A A47G A49G A52C U55A G88U U104A A119U U146C U148A,≤ -4.2
9,C8U G83C C125U,≤ -4.2
10,C8U A12C C38U A47U A49C C85G A150G,≤ -4.2
11,U9G A23U G34C C57A C93A,≤ -4.2
12,C8G A29C G34C U78G G86U A97C C149U,≤ -4.2
13,C8G A30G C35U G65U G94U U135C U144G,≤ -4.2
14,U9A A26U C36U A91G A120C G124A,≤ -4.2
15,U9G A22C A60C G62A C103A,≤ -4.2
16,C8A A22C A28U A29C C87G U109C G140A,≤ -4.2
17,U9G A17C C57A G59U C63U G94A C108U,≤ -4.2
18,U7G U53A U56G G84U U148C,≤ -4.2
19,C8U G59A G68C,≤ -4.2
20,C8G A28U G94A,≤ -4.2
21,C8A A26U A49U G83U U101G C118U A138C,≤ -4.2
22,U7G C85U,-2.79
23,C8U A29U A52C G86U A106G,≤ -4.2
24,U9G A17U G94A,≤ -4.2

row,Variant,polymerase ribozyme fitness (log ratio)
1,C8A A19G C36U U77G G126U G141U,≤ -4.2
2,U7G C8A G25A G48A G50C C75U G84U C85A C96A C123A A150U,≤ -4.2
3,C8A G48A G92C,≤ -4.2
4,C8G G11C G34C C99G U151G,≤ -4.2
5,C8U U148A,≤ -4.2
6,U9G A21G U45C U53A C123U,≤ -4.2
7,C8U U31G,-3.21
8,C8G U13C A28U U45G G58A G126A,≤ -4.2
9,U9A A19C A41C C57U C96U,≤ -4.2
10,C8U G83C,-2.8
11,U9G A16G C18A C63U,≤ -4.2
12,C8U C18G A49C C54G G74A U78C G92A A142U,≤ -4.2
13,C8A C10U A26U A29G U78G C93A C116U C125U,≤ -4.2
14,C8G C10G A22G A26C A49U G83C C87U A91C A107G A110U G136U,≤ -4.2
15,C8U C14G A23G C27A A28U,≤ -4.2
16,U9C A24U G62U C85U,≤ -4.2
17,C8U A28C A41C A49C U61G C87G G133U A142C,≤ -4.2
18,C8A G50A G88A,≤ -4.2
19,U7G G42A U44A G68C A91U G117A U135A,≤ -4.2
20,C8G C14U A30U C75U,≤ -4.2
21,C8G A12U C14G U15G A21G C54G C57A A91G C99G,≤ -4.2
22,C8A A26U A37C G59A C93U,≤ -4.2
23,C8A U13G U33A G124A U146C,≤ -4.2
24,U9C A28C C36A C87U C116U,≤ -4.2

row,Variant,polymerase ribozyme fitness (log ratio)
1,U9A A16G C54U C75U C76A A120U,≤ -4.2
2,U9A C51A U55A G83C,≤ -4.2
3,U9A U31G U53G G88A G126U A150C,≤ -4.2
4,U9A G11A C27U G84U U148A,≤ -4.2
5,U9A A23C U31G A73U C93G A106G G117A G133A A150G,≤ -4.2
6,C8U A28G G34A C36U G86U A91G A110U,-4.19
7,C8A A23C C35G C43G U56A U78G C79A C93U U109G U146C,≤ -4.2
8,C8G A26C A91C U145G,≤ -4.2
9,U9A C76U C85U C132U G133C,≤ -4.2
10,C8G A40U C43G U44G G68C C85U A110C,≤ -4.2
11,U9A G34A C57A C85A A91U,≤ -4.2
12,C8U G74A C87A A115C U144C,≤ -4.2
13,U9A A26G A66C A122U A137U G143C U145A,≤ -4.2
14,C8A A20U G86U A89U U90G C93U,≤ -4.2
15,C8G A23G G84A A97G U104A U134C,≤ -4.2
16,C8A G71U C79G,≤ -4.2
17,C8U A30U U44A A97G U101G A113G C132U C149G A150U,≤ -4.2
18,C8G A40G U56G G70C C85G A115G A119G G141U A147C,≤ -4.2
19,U7G C76A C93A G126U G140C,≤ -4.2
20,C8A C14G U53C G58A G62C C85G,≤ -4.2
21,U9C G25C U56A C93U C99G,≤ -4.2
22,C8A A22G C27A A41G G88U C125A U146C,≤ -4.2
23,C8U C14G U31G C57U G83A,≤ -4.2
